We go through 23 compounds from ChEMBL document CHEMBL4888484, “Replenishing the malaria drug discovery pipeline: Screening and hit evaluation of the MMV Hit Generation Library 1 (HGL1) against asexual blood stage Plasmodium falciparum ,using a nano luciferase reporter read-out” (2022).

The whole screen tested about 150,000 compounds, of which about 540 (0.36%) showed an effect of 50% or more. This is one part of the list.

The test system of the experiment is Plasmodium falciparum. The experiment is described as follows: Primary screen in NF54 nanoGlo assay, in single point, at 2uM, 72h; a lower Z score goes with more inhibition. The following applies: timepoint 72 hour. In kind it is functional, Erythrocyte.
One may read the % Inhibition as the relative decrease from the control value, in per cent. For the compound `CCc1ccc(S(=O)(=O)N[C@@H](CC)c2nccs2)s1`, the “% Inhibition” value was -8% and the Z score was determined as 1.17.

As to `CCc1ccc(CN=C(N)N(C)C)s1`, the “% Inhibition” value is 5% and the Z score is -0.51.

Take `O=C1[C@@H]2CCCN2C(=O)N1C1CCN(c2ccccc2)C1` (stereo partly specified): the “% Inhibition” value turned out to be 6% and the Z score was -0.99.

`CC(=O)N1CCc2cc(S(=O)(=O)N3CCC(CC(=O)NCCc4ccccc4)CC3)ccc21`: the “% Inhibition” value is on record as -6% and the Z score stood at 0.59.

As for `CCC[C@]1(c2ccccc2)NC(=O)N(Cc2cc(=O)n(C)c(=O)n2C)C1=O`, the “% Inhibition” value was -14% and the Z score is listed as 1.61.

As for `C[C@H](Oc1ccccc1)C(=O)N1CCC2(CC1)CC2(F)F`, the “% Inhibition” value came out at 19% and the Z score was -2.35.

As for `COc1ccc(-c2cnc3ncnn3c2N2CCN(S(=O)(=O)c3cccc(Cl)c3Cl)CC2)cc1OC`, the “% Inhibition” value is -18% and the Z score is 1.79.

Regarding `Cc1nc(C2=C(O)CN(c3ccc(N(C)C)cc3)C2=N)sc1C`, the “% Inhibition” value is reported as 18% and the Z score is -2.2.

As to `O=C(N[C@H]1CCN(c2cnccn2)C[C@@H]1O)c1ccc2c(c1)OCO2`, the “% Inhibition” value stood at 0% and the Z score was determined as 0.01.

With `CCCCn1ccnc1C1CCN(C(=O)N[C@H](C)c2ccc(F)cc2)CC1`, the “% Inhibition” value is recorded as -12% and the Z score was 1.16.

For `NC(=O)c1nc(CNC(=O)[C@H]2CCC[C@H](O)C2)no1`, the “% Inhibition” value is -8% and the Z score was found to be 0.72.

Consider `CCN(CC)c1cc(-c2c(OC)cc(C)cc2OC)nc(N)n1`, for which the “% Inhibition” value was 21% and the Z score is reported as -2.78.

In the case of `Cc1cc2c(NC(=O)NCCN3CC[C@H](c4ccccc4)C3)cccc2nn1`, the “% Inhibition” value was 10% and the Z score is given as -1.76.

Regarding `CC(=O)NC1CCC(N[C@H](C)c2cccc(O)c2)CC1` (stereo partly specified), the “% Inhibition” value was determined as 1% and the Z score is given as -0.23.

For `N[C@@H]1CC[C@H](NC(=O)c2ccc(-c3ccc(F)cc3O)cc2)C1`, the “% Inhibition” value was 10% and the Z score was -1.39.

As for `O=C1CCN(C(=O)C2(c3cccc(F)c3)CCCCC2)CCN1`, the “% Inhibition” value is -4% and the Z score turned out to be 0.69.

On to `O=C1N(Cc2cccc(F)c2F)CCC[C@@]12CCN(CCOCCO)C2`, for which the “% Inhibition” value is recorded as -8% and the Z score is 0.93.

For `Cc1cc(N2CC[C@@]3(CCCN(CC4CCCCC4)C3=O)C2)nc2ccccc12`, the “% Inhibition” value was determined as 3% and the Z score was -0.54.

`COc1ccc(COCC(=O)NCc2cnoc2C)cc1`: the “% Inhibition” value is -3% and the Z score was determined as 0.5.

With `CCN=C(NCc1cccc(C#N)c1)N[C@H]1CCCN(CCOC)C1`, the “% Inhibition” value came out at 2% and the Z score is reported as -0.19.

Consider `Cc1ccccc1Cc1c(C)[nH]c2[nH]n(-c3ccccc3)c(=O)c2c1=O`, for which the “% Inhibition” value stood at 10% and the Z score is -1.18.

Consider `COc1ccc(NC(=O)[C@@H]2CCCN2Cc2ccc(OC)nn2)cc1`, for which the “% Inhibition” value is 2% and the Z score was -0.23.

With `COc1cc2ncn([C@@H](C)c3cccnc3)c(=O)c2cc1OC`, the “% Inhibition” value is 3% and the Z score was -0.51.
